The whole screen tested about 310,000 compounds, of which about 2,200 (0.71%) showed an effect of 50% or more. Effects have a minus sign here. The list shows a part of the results.

Sequence of human ether-à-go-go-related gene (hERG) potassium channel (Q12809 whole entry, looked up): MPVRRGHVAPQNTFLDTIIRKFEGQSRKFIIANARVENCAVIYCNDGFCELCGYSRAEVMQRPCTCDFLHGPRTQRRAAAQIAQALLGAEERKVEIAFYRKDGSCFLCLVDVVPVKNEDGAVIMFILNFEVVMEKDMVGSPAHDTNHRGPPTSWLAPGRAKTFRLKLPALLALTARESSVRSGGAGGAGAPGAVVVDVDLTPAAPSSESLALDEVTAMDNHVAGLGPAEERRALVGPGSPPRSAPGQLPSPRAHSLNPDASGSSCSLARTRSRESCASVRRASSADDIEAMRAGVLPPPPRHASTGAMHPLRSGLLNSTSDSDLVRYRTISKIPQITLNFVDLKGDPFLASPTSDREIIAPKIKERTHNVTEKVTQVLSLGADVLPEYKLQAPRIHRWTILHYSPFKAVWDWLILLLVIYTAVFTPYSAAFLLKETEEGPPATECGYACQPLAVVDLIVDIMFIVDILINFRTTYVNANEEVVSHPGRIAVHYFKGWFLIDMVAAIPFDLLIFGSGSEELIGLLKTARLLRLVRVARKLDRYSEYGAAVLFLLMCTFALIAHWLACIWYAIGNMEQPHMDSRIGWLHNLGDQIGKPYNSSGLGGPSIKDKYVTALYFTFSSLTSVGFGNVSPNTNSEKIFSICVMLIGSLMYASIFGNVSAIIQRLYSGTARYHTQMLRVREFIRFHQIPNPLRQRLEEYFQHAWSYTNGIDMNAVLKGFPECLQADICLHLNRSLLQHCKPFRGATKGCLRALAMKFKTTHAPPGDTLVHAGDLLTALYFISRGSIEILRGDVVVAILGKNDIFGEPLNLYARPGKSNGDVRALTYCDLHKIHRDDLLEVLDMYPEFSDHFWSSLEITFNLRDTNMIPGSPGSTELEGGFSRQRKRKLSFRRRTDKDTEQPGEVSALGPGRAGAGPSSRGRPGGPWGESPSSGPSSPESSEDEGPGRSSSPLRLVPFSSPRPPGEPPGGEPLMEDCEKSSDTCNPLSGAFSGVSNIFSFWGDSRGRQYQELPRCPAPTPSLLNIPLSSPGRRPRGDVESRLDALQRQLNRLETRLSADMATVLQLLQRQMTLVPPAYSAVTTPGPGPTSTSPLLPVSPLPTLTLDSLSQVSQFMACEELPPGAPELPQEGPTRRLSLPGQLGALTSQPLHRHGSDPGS

This assay concerns the target human ether-à-go-go-related gene (hERG) potassium channel (human, UniProt Q12809). Kind of assay: primary screen, population patch clamp on CHO cells stably expressing hERG.
Take `OCCCc1nc2n(n1)C(c1ccccc1Cl)C=C(c1cccs1)N2` (stereo not shown): the “hERG current change (%, negative = inhibition) at 1uM” value is 3.05%.

On to `COc1ccc(C(=O)N2CCN=C2SCc2cccnc2)cc1OC`, for which the “hERG current change (%, negative = inhibition) at 1uM” value was 9.25%.

Take `CCN(C(=O)c1nn(-c2ccc(OC)cc2)c(=O)c2c1c1ccccc1n2C)c1ccc(OC)cc1`: the “hERG current change (%, negative = inhibition) at 1uM” value is reported as 11.3%.

On to `COc1ccc(/C=C/C(=O)NC2=NCCS2)cc1OC`, for which the “hERG current change (%, negative = inhibition) at 1uM” value is on record as 18.6%.

`CC(C)[C@H](NC(=O)c1ccccc1)C(=O)OCC(=O)N1CCN(C(=O)c2ccco2)CC1`: the “hERG current change (%, negative = inhibition) at 1uM” value was 12.4%.

Regarding `O=C(Cn1cc([N+](=O)[O-])cn1)Nc1ccc(Cn2cc(Br)cn2)cc1`, the “hERG current change (%, negative = inhibition) at 1uM” value was -4.27%.

For `C=C(C)c1cccc(C(C)(C)NC(=O)N2CCOCC2)c1`, the “hERG current change (%, negative = inhibition) at 1uM” value was 4.49%.

Take `O=C(N/N=C/c1ccccn1)c1ccc(NC(=O)c2cccc([N+](=O)[O-])c2)cc1`: the “hERG current change (%, negative = inhibition) at 1uM” value is 13.7%.

Take `COCC(C)(C)COS(N)(=O)=O`: the “hERG current change (%, negative = inhibition) at 1uM” value is 3.34%.

On to `C=Cc1ccc2c(c1)N(C)C(=C)S2.I`, for which the “hERG current change (%, negative = inhibition) at 1uM” value stood at 5.17%.

For `CCOC(=O)N1CCC(NS(=O)(=O)c2ccc3c(c2)C(C)(C)C(=O)N3C)CC1`, the “hERG current change (%, negative = inhibition) at 1uM” value came to 21.2%.

For `COc1ccc(S(=O)(=O)N/N=C\c2ccc([N+](=O)[O-])o2)c(OC)c1`, the “hERG current change (%, negative = inhibition) at 1uM” value is recorded as 9.82%.

Consider `COc1cc(-c2nc(-c3ccccc3)c(-c3cccs3)[nH]2)cc(OC)c1O`, for which the “hERG current change (%, negative = inhibition) at 1uM” value is listed as 6.13%.

`CC(C)c1ccc(NC(=O)c2ccccc2NC(=O)C2CCCCC2C(=O)O)cc1` (stereo not shown): the “hERG current change (%, negative = inhibition) at 1uM” value is recorded as 15.2%.

Regarding `CS(=O)(=O)O.Cc1c(C(=O)c2cccc3ccccc23)c2cccc3c2n1[C@H](CN1CCOCC1)CO3`, the “hERG current change (%, negative = inhibition) at 1uM” value stood at 6.41%.

Take `Cc1ccc(-c2cc(C(=O)Nc3ccc(S(=O)(=O)Nc4onc(C)c4C)cc3)[nH]n2)c(O)c1`: the “hERG current change (%, negative = inhibition) at 1uM” value is recorded as -1.84%.

`COCCCn1c(=O)c2sccc2n2c(CCCC(=O)N(C)Cc3ccco3)nnc12`: the “hERG current change (%, negative = inhibition) at 1uM” value is 8.6%.

On to `COc1ccccc1N1CCN(C(=O)c2ccc(NC3=NC4CS(=O)(=O)CC4S3)cc2)CC1` (stereo not shown), for which the “hERG current change (%, negative = inhibition) at 1uM” value stood at 7.38%.

For `O=C1C2C3CCC(O3)C2C(=O)N1CCO` (stereo not shown), the “hERG current change (%, negative = inhibition) at 1uM” value worked out at 6.66%.

For the molecule `CCc1cccc2c(C(=O)CN3C(=O)NC4(CCCCCC4)C3=O)c[nH]c12`, the “hERG current change (%, negative = inhibition) at 1uM” value amounted to 9.9%.

On to `CCN1CCN(CC(c2ccccc2)c2ccccc2)CC1`, for which the “hERG current change (%, negative = inhibition) at 1uM” value was -0.532%.

Regarding `NC(=O)C1C(c2ccccc2)=C1c1ccccc1`, the “hERG current change (%, negative = inhibition) at 1uM” value came out at 18.3%.

As to `Cc1ccc(-c2nc(NCc3ccco3)n(S(C)(=O)=O)n2)cc1`, the “hERG current change (%, negative = inhibition) at 1uM” value amounted to 3.19%.

Regarding `CCC(=O)Nc1ccc(NC(=O)CSc2nnc(-c3ccco3)n2C)cc1`, the “hERG current change (%, negative = inhibition) at 1uM” value worked out at 5.39%.

As for `Cc1nc(NC(=O)C2CC2)sc1C(=O)NC1CCCCC1`, the “hERG current change (%, negative = inhibition) at 1uM” value was 16.1%.

On to `COc1cc(C)nc(N(Cc2ccccc2)S(=O)(=O)c2ccccc2)n1`, for which the “hERG current change (%, negative = inhibition) at 1uM” value is given as 7.16%.

For the molecule `Cc1ccc(C(=O)C[n+]2cccc3ccccc32)cc1.[Br-]`, the “hERG current change (%, negative = inhibition) at 1uM” value came out at 7.24%.

For `CS(=O)(=O)Nc1ccc(C(=O)Nc2ccccc2-c2ccccc2)cc1`, the “hERG current change (%, negative = inhibition) at 1uM” value is -25.7%.

For the molecule `CCOc1ncccc1C(=O)Nc1cccc(-c2nnc3n2CCCCC3)c1`, the “hERG current change (%, negative = inhibition) at 1uM” value is given as -16.4%.

Turning to `CCOC(=O)CCNC(=O)N1CCCC(CCC(=O)N(C)CCc2ccccn2)C1` (stereo not shown), the “hERG current change (%, negative = inhibition) at 1uM” value was -11.3%.

Take `O=C(Nc1cccc(C(=O)O)c1)/C(=C/c1cccc([N+](=O)[O-])c1)NC(=O)c1cccc(Br)c1`: the “hERG current change (%, negative = inhibition) at 1uM” value is 12.4%.

Regarding `CCOc1ccc(Nc2oc(-c3cccs3)nc2C#N)cc1`, the “hERG current change (%, negative = inhibition) at 1uM” value came to 4.54%.

On to `CN=C1SC(CC(=O)Nc2cccc(Cl)c2Cl)C(=O)N1C` (stereo not shown), for which the “hERG current change (%, negative = inhibition) at 1uM” value was 1.48%.

With `CCOc1ccc(-c2nnn(CC(=O)Nc3cc(OC)ccc3OC)n2)cc1OCC`, the “hERG current change (%, negative = inhibition) at 1uM” value was 8.07%.

Consider `NC(=O)c1ccc(NC(=O)COC(=O)/C=C/c2cccs2)cc1`, for which the “hERG current change (%, negative = inhibition) at 1uM” value is listed as 17.8%.

For the molecule `O=c1[nH]c2ccccc2cc1CN(CC1CCCO1)S(=O)(=O)c1ccc(Cl)cc1` (stereo not shown), the “hERG current change (%, negative = inhibition) at 1uM” value is on record as -41.4%.

For the molecule `CC1=C(C(N)=O)C(c2ccc(Cl)cc2)n2nc(CCCO)nc2N1` (stereo not shown), the “hERG current change (%, negative = inhibition) at 1uM” value was found to be 16.3%.

`COc1cccc(CNn2cnnc2)c1O`: the “hERG current change (%, negative = inhibition) at 1uM” value is recorded as 6.69%.

As to `Cc1c(NC(=O)C(C)OC(=O)c2nc(Cl)ccc2Cl)c(=O)n(-c2ccccc2)n1C` (stereo not shown), the “hERG current change (%, negative = inhibition) at 1uM” value turned out to be 9.24%.

As to `O=C(O)C1CCCCC1C(=O)Nc1ccccc1C(=O)N1CCN(c2ccc(F)cc2)CC1` (stereo not shown), the “hERG current change (%, negative = inhibition) at 1uM” value was -1.35%.

On to `Cc1cc(NC(=O)Nc2ccc(F)cc2)no1`, for which the “hERG current change (%, negative = inhibition) at 1uM” value is -4.5%.

Take `CC(C)Cc1ccc(CN2CCCC(NC(=O)CCN3CCCCC3=O)C2)cc1` (stereo not shown): the “hERG current change (%, negative = inhibition) at 1uM” value came to 6.37%.

With `Cc1c(OC(=O)N(C)C)ccc2c1O/C(=C\c1ccco1)C2=O`, the “hERG current change (%, negative = inhibition) at 1uM” value is 14.8%.

The record behind these values is publication PMC4336329 (PLoS ONE, 2015).
